Laboratory results published in PubChem BioAssay AID1963576 (National Center for Advancing Translational Sciences (NCATS), 2024).
In all, about 46,000 compounds went through this assay and about 60 (0.1%) were called active. Roughly 3% stayed inconclusive and do not appear here. The call rests on the fitted dose curve; in most records, active means well fitted inhibition curve with a large enough effect; inconclusive means small, poorly fitted or top-dose-only effect; inactive means no such curve, though single readings can be large or run the other way. This is one part of the list.

Assay: Primary qHTS assay for Inhibitors of ovarian cancer metastasis using an organotypic tumor microenvironment (TME) model. Further: nearly all actives have a fitted effect of over 65% in size.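 On activity change, negative = inhibition: plate controls were DMSO wells for no effect and tomatine positive control wells for full effect.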
Details: SKOV3ip1-GFP adhesion/invasion on 3D omental model, fluorescence; series mostly up to 45.8 µM; activity change, negative = inhibition: at the top concentration
In short: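 Adhesion/invasion was scored as fixed GFP-labeled SKOV3ip1 cell counts (488/509 nm), normalized to DMSO and tomatine controls. Cancer cells in serum-free medium, with four compound doses (0.36-46 umol/L), sat 2 hr at RT then 16 hr at 37 C on a 48 hr fibroblast/mesothelial/ECM culture.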

Activity change, negative = inhibition, inactive:
Cc1cccn2c(=O)c(/C=C(\C#N)c3nc4ccccc4s3)c(Oc3ccc(F)cc3)nc12 -17.2%, Cc1noc(/C=C/c2cccs2)c1S(=O)(=O)N1CCC(C(=O)NCc2ccc(Cl)cc2)CC1 3.39%, COc1cccc(C(=O)Nc2ccccc2OCc2cc(=O)n3ccccc3n2)c1 12.3%, CCCOc1ccc(C2C(=O)N(C3CCCCCC3)CC(=O)N2CCC2=CCCCC2)cc1OC (configuration not stated) 14.4%, CCOCCn1ccc2c(OCC(=O)Nc3cccc([N+](=O)[O-])c3)cccc2c1=O -9.15%, COc1ccccc1CN1CCNC(=O)C1=O 1.64%, COc1ccc(NC(=O)C(CC(C)C)NC(=O)C2CCCCC2)cc1 (configuration not stated) 2.35%, COc1ccccc1NC(=O)Cn1c(=O)n(-c2cccc(C)c2)c(=O)c2c1c1cc(C)ccc1n2C 4%, O=C(Cn1ncc2c3ccccc3n(Cc3ccccc3)c2c1=O)NC1CCCCCC1 -8.55%, CCOc1ccc(CN2CCc3nc(N4CCN(c5ccccn5)CC4)ncc3C2)cc1OC 11.2%, Cn1c(=O)c2cc(C(=O)NC3CCCCCC3)sc2c2ccccc21 -15.7%, CCCc1noc(-c2ccc(NCc3ccc(C)cc3)c([N+](=O)[O-])c2)n1 9.84%, CCCc1cnc2c(c1SCc1cccc(F)c1)c(=O)n(C)c(=O)n2C -21.1%, Cc1ccccc1-c1cc2nccc(-c3cc(Cl)ccc3O)n2n1 -1.62%, Cc1ccc(C(=O)c2cn(Cc3ccccc3C)c3nc(C)ccc3c2=O)cc1 -2.49%, COc1ccc(-c2cn3c(n2)sc2cc(C(=O)NCc4cccc(F)c4)ccc23)cc1 1.86%, Cc1nc(C)c(CCNS(=O)(=O)c2ccc(F)cc2)s1 4.8%, Cc1ccc(NC(=O)CN2C(=O)COc3ccc(S(=O)(=O)NC4CCCC4)cc32)c(Cl)c1 -12.8%, CCCCNC(=O)CSc1nc2cc3c(cc2c(=O)n1CCCCCC(=O)NCc1ccc(OC)cc1)OCO3 -3.12%, COc1ccc(CNC(=O)c2cnc3sc(N4CCCC4)nn3c2=O)c(OC)c1 5.45%, CCc1ccc(Nc2nnc(-n3nc(C)cc3C)c3ccccc23)cc1 -0.752%, COc1ccc(-c2nc(SCC(=O)NC3CCCC3)c(-c3ccc(C)cc3)[nH]2)cc1OC 53.4%, CCOc1ccc(NC(=O)C(=O)NCC(c2cccnc2)N2CCc3ccccc32)cc1 (configuration not stated) 6.5%, COc1ccc(C2CC(=O)N(CC(=O)Nc3ccc(C)c(Cl)c3)c3ccccc3S2)cc1OC (configuration not stated) 24.9%, CCOC(=O)C1CCCN(S(=O)(=O)c2ccc3c(c2)oc(=O)n3C)C1 (configuration not stated) -7.77%, COc1ccc(N(Cc2cccs2)C(=O)Nc2cccc(Cl)c2)cc1 2.85%, COc1ccc(CNC(=O)Cc2csc3nc(-c4ccc(F)cc4)cn23)cc1 -28.1%, O=C(CSc1ncc2c(n1)-c1ccccc1N(Cc1ccc(F)cc1)S2(=O)=O)NCCc1ccccc1 2.3%, Cc1cn2c(=O)cc(COc3ccc(NC(=O)COc4ccccc4)cc3)nc2s1 -4.87%, COc1cc(NC(=O)CN(c2cc(C)cc(C)c2)S(=O)(=O)c2c(C)[nH]c(=O)[nH]c2=O)cc(OC)c1 0.693%, C#CC(C)(CC)NC(=O)Cn1nnc(-c2ccc(OCc3c(F)cccc3Cl)cc2)n1 (configuration not stated) 6.59%, CCOc1ccc(-c2nc3ccccc3c(=O)o2)cc1 4.7%, Cc1ccc(Nc2cc(C)nc3nncn23)c(C)c1 1.43%, Cn1cc(-c2cc3n(n2)CCC(=O)N3CCCC(=O)NCc2ccccc2Cl)c2ccccc21 1.99%, Cc1cc(C)cc(Nc2nc3cc(Cl)c(Cl)cc3nc2-n2nc(C)cc2C)c1 5.94%, O=c1[nH]c(C2CCCN(S(=O)(=O)c3ccccc3)C2)nc2c1nnn2Cc1ccc(OC(F)(F)F)cc1 (configuration not stated) 19.6%, O=C(C1CCC(Cn2c(=O)c3sccc3n(Cc3ccc(F)cc3)c2=O)CC1)N1CCOCC1 (configuration not stated) 1.06%, CN1C(=O)C2(c3ccccc31)N(c1ccc(Br)cc1)C(=O)CS2(=O)=O (configuration not stated) -5.26%, COc1ccc2c(c1)-c1nc(NC(=O)c3cc(OC)c(OC)c(OC)c3)sc1CC2 -9.84%, CCc1ccc2oc(C(=O)NCc3ccccc3)cc(=O)c2c1 12.3%, Cc1ccc(NC(=O)Cn2c(-c3nonc3N)nc3ccccc32)c(Br)c1 -11.9%, CCCCOc1ccc(C2C(=O)N(C3CCCCC3)CC(=O)N2CCCC)cc1 (configuration not stated) 4.86%, Cc1ccc(-n2ncc(C(=O)NCCCN3CCc4ccccc4C3)c2C2CCN(C(=O)OC(C)(C)C)CC2)c(C)c1 -3.29%, COc1cccc(CNC(=O)Cn2nc(N3CCN(c4ccccc4OC)CC3)ccc2=O)c1 4.14%, CCOc1ccc(-n2c(=O)c3c(C)c(C)sc3n(Cc3ccccc3C)c2=O)cc1 0.159%, Cc1c(Cl)cccc1NC(=O)C(C)n1c(=O)cc(C)c2c(C)nn(-c3ccccc3)c21 (configuration not stated) 0.824%, COc1cccc(CNC(=O)Nc2cc(C(=O)NCc3cccc(F)c3)ccc2N2CCCC2)c1 0.49%, CCC(Oc1ccc(F)cc1)C(=O)Nc1cc(-c2ccc(C)cc2)no1 (configuration not stated) 0.219%, CCOc1ccc(NC(=O)CC2C(=O)N(c3cccc(OC)c3)C(=O)N2C2CCCCC2)cc1 (configuration not stated) 1.25%, Cn1c(=O)c2ccccc2n2c(CCC(=O)N3CCN(c4cccc(Cl)c4)CC3)nnc12 19.8%, CCN(CC)c1ccc(NC(=O)c2cc(CN3CCCC3)on2)c(C)c1 12.2%, Cc1ccc(C(=O)NCC(=O)OCc2cc(=O)n3nc(C4CCCCC4)sc3n2)cc1 3.28%, CCOc1ccc(NC(=O)Cn2nnc(C(=O)OC)c2C(=O)OC)cc1 0.919%, COc1ccc(Cn2c(SCC(=O)NCc3ccccc3)nc3ccccc32)cc1 -7.25%, CCCCn1c(Oc2cccc(C(=O)OC)c2)nc2c1c(=O)n(C)c(=O)n2C -2.15%, CCN1CCN(c2csc3ccc(Cl)cc3c2=O)CC1 1.35%, Cc1cccc(NC(=O)CSc2nc(-c3cccs3)cc(C(F)(F)F)c2C#N)c1 -6.82%, COc1ccc(Cl)cc1NC(=O)C(C)n1nnc2sc3c(c2c1=O)CCCC3 (configuration not stated) 6.21%, COc1ccccc1C(=O)Nc1cc(-c2cccc(Br)c2)nn1-c1ccccc1 -0.432%, Cc1cc(C)cc(N2C(=O)CC(c3ccc(C(F)(F)F)cc3)C3=C2COC3=O)c1 (configuration not stated) 6.46%, COc1ccc2c(C)c(CC(=O)NCCc3ccccc3)c(=O)oc2c1OC 3.29%, O=c1oc2ccc3ccccc3c2cc1-c1nnc(Nc2ccccc2)s1 9.12%, CCc1cccc(NC(=O)Cn2nc(CC)n3c(cc4cc(C)ccc43)c2=O)c1 2.46%, Cc1ccc2c(c1)C(c1ccc(F)cc1)N(C(=O)C(C)C)CC(=O)N2 (configuration not stated) -44.9%, COc1ccc(C(=O)NC2(C(F)(F)F)C(=O)NC(C)=C2C#N)cc1 (configuration not stated) -12.2%, COc1cc(NC(=O)c2nc3cc(C)c(C)cc3n(C)c2=O)cc(OC)c1OC 41.5%, Cc1ccc(CCNC(=O)c2sc3ncccc3c2-n2cccc2)cc1 -8.87%, COc1cccc(NC(=O)CSc2nc(O)c(C/C=C/c3ccccc3)c(=O)[nH]2)c1 2.35%, Cc1cc(S(=O)(=O)Nc2cccc(-c3ccc(N4CCOCC4)nn3)c2)c(C)cc1Cl 17.1%, Cc1ccc(C)c(CN2C(=O)c3ccccc3Sc3ccc(C(=O)NCc4ccco4)cc32)c1 -1.6%

outcome, inactive:
COc1ccc(N(Cc2nnc3n2CCCCC3)C(=O)Nc2cccc(C)c2)cc1Cl, CCn1c(=N)n(CC(O)COc2ccccc2)c2ccccc21 (configuration not stated), Cc1oc2c(cc(NS(=O)(=O)c3ccc(Cl)cc3)c3ccccc32)c1C(=O)OCc1ccccc1, Cc1ccc(NC(=O)Cn2c(=O)n(Cc3ccc4c(c3)OCO4)c(=O)c3ccccc32)cc1, COc1cccc(NC(=O)CCc2c(C)nc3ncnn3c2C)c1, Cc1ccccc1NC(=O)CCN1C(=O)c2ccccc2Sc2ncccc21, Cc1ccccc1C(=O)NCCc1sc(-c2ccc(Cl)cc2)nc1C, Cc1cc(C)cc(C(=O)n2nc(C)c(S(=O)(=O)N3CCOCC3)c2C)c1, Cc1ccc(-n2c(=O)c3ccc(C(=O)NCc4ccccc4Cl)cc3n(CC(=O)Nc3ccc(C)cc3C)c2=O)cc1, CCOC(=O)c1cccc(NC(=O)[C@H](CSCc2ccccc2)N2Cc3ccccc3C2=O)c1, CCOC(=O)c1c(NC(=O)c2ccc(F)cc2)sc2c1CCC(CC)C2 (configuration not stated), CC(C)CCn1c(SCc2cccc(F)c2)nc2ccsc2c1=O, CN1C(=O)c2[nH]nc(-c3ccc(F)cc3)c2C1c1cccc(O)c1 (configuration not stated), Cc1cc(C)cc(C(=O)N2CC(=O)Nc3ccc(Br)cc3C2c2ccccc2)c1 (configuration not stated), CCCCN(CC)CCCNC(=O)c1ccc2c(c1)NC(=O)CN2C, Cc1ccc(OCCOCCn2c(-c3ccc(Cl)cc3)nc3ccccc3c2=O)cc1, COc1cccc(CNC(=O)CCc2c(C)c3ccc(O)c(C)c3oc2=O)c1, CCOC(=O)c1noc2ncn(CC(=O)Nc3ccccc3OC)c(=O)c12, COc1ccc(-n2c(SCc3ccccc3)nc3c([nH]c4ccccc43)c2=O)cc1, COc1ccc2c(c1)CCc1c(C(=O)Nc3ccc(C#N)cc3)noc1-2, COc1ccc(C)cc1NC(=O)CN1C(=O)COc2ccc(S(=O)(=O)N3CCC(C)CC3)cc21, CCNC(=O)CCSc1nnc(-c2ccc(O)cc2)o1, CCOc1cc(CNC(=O)c2ccc(NC(=O)c3nsc4ccccc34)cc2)ccc1OC, CCC(=O)Nc1cc(C(=O)NCc2ccc(C)cc2)ccc1S(=O)(=O)c1ccc(C)cc1, COc1ccc(N2CCN(S(=O)(=O)c3ccc(-c4cc(C(F)(F)F)on4)s3)CC2)cc1, CCc1cccc(C)c1Nc1c(-c2ccc(N(C)C)cc2)nc2ncccn12, Cc1cc(C)c2oc(C(=O)Nc3c(C(=O)c4ccc(F)cc4)oc4ccccc34)cc(=O)c2c1
